Assay results taken from the supplement of paper PMC4466236.
Whole data set: some 33,000 sequences, median “E-score (dimensionless, -0.5 to 0.5)” near -0.058, cut for the highest 2% near 0.35. Some of the results follow.

The sequences below were run on MvaT (assay: PBM 8-mer E-score (mean of HK and ME arrays) (E-score (dimensionless, -0.5 to 0.5)); higher = stronger relative binding preference; most listed sequences are background and not binding sites).
In short: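 Full-length P. aeruginosa MvaT carrying an N-terminal glutathione S-transferase tag was tested by protein binding microarray following a previously described protocol. Two universal double-stranded 60-mer arrays, ME and HK, were used, each with a constant 25-mer primer region and a variable 35-mer region covering all 8-mers. The rank-based E-score is the mean of the two arrays, parsed with a custom script. Its range runs from -0.5 to 0.5 for each 8-mer.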

| Sequence | PBM 8-mer E-score |
| --- | --- |
| CCAAAGTC | 0.0274 |
| CCCTGCAG | -0.29 |
| CCTTCACG | -0.149 |
| GGCCAAGA | -0.156 |
| CGTGAGAG | -0.085 |
| AACTAAGT | 0.218 |
| AAGCGATC | -0.18 |
| TAATCCTA | 0.0852 |
| AAACACAC | 0.156 |
| AACATGAT | 0.174 |
| CACGAACC | -0.245 |
| CGCAAGAG | 0.0446 |
| GGGGCTAC | -0.268 |
| ACGGTACT | -0.0571 |
| GGATAGAC | -0.273 |
| ACCTACAT | 0.14 |
| TGGTACCA | -0.0714 |
| ACGACATG | -0.0211 |
| CAGCAATC | -0.13 |
| GGGTTAGA | -0.0965 |
| CATCAACG | -0.0375 |
| ACATCACT | 0.0816 |
| GATAGGAC | -0.129 |
| AAGAGTGT | 0.105 |

| Sequence | PBM 8-mer E-score |
| --- | --- |
| CAAGAAGA | -0.00181 |
| AAAACCCG | 0.101 |
| CTATTCAC | -0.0265 |
| ATCGCTTG | -0.175 |
| AAGTACGT | 0.0621 |
| CGGGATCA | -0.122 |
| CCTTTGTA | -0.1 |
| CCACTGGG | -0.218 |
| AGGCAATC | -0.0359 |
| ACTTTTCA | 0.188 |
| GTCGGCAC | -0.256 |
| ACGAATGC | -0.187 |
| AGCCCAAT | -0.00706 |
| CACGTGAA | 0.0328 |
| AGCACACG | -0.185 |
| AAAATAAC | 0.378 |
| CGCGGACC | -0.283 |
| AGTGGATC | -0.147 |
| ATATGGCG | 0.248 |
| GGTCAAGA | -0.178 |
| CAGGGTAA | -0.098 |
| CCTACTAG | -0.145 |
| CAGGATCA | -0.0557 |
| TATGGAAA | 0.221 |

| Sequence | PBM 8-mer E-score |
| --- | --- |
| CGGACATC | -0.195 |
| CGCCGAAA | -0.0708 |
| CTCGATGC | -0.275 |
| GGCTACTA | -0.203 |
| GGTACGAC | -0.242 |
| CATCCCAA | -0.0621 |
| CAGACAGA | -0.0731 |
| ACGATCAT | -0.00124 |
| CATATCTC | 0.085 |
| GCCGAGAC | -0.167 |
| CACTCCGC | -0.245 |
| GCACTCCA | -0.261 |
| ACTTTCAG | 0.0974 |
| AGGGGGAT | -0.247 |
| GAATTTTA | 0.254 |
| ATGTGAGG | -0.0895 |
| ACTTGCCA | 0.0498 |
| CTCATAGC | -0.173 |
| ACTAGAAC | 0.167 |
| GGTACATA | 0.123 |
| GATCGATA | 0.219 |
| ATTTATTC | 0.295 |
| ATTGGGTA | 0.0919 |
| AATCGCAC | 0.0897 |

| Sequence | PBM 8-mer E-score |
| --- | --- |
| AACACGAT | 0.0957 |
| CCACAGAA | -0.0553 |
| GAAAACGC | 0.0943 |
| GGCCCTTA | -0.232 |
| ACGTAATA | 0.29 |
| CTACCCAG | -0.156 |
| CCGCATCC | -0.14 |
| TAGCCTGA | -0.21 |
| CTGAAGCA | -0.235 |
| ACAAAAGG | 0.0348 |
| AGGGTTCC | -0.308 |
| CCGGCGAC | -0.147 |
| ACAATAAC | 0.324 |
| GCAACTCA | 0.0297 |
| CGGTTACG | -0.105 |
| CTCTTCGC | -0.138 |
| CAGGGGAG | -0.312 |
| ATTATAGA | 0.331 |
| CACTTAGG | -0.145 |
| GGTTAGAC | -0.0626 |
| AACCTCGG | -0.178 |
| CTGCTCGC | -0.223 |
